From paper PMC4336329 (PLoS ONE, 2015)
Hit rate of the full screen: of about 310,000 compounds, about 2,200 (0.71%) showed an effect of 50% or more. Effects have a minus sign here. The list shows a part of the results.

What follows are molecules tested against human ether-à-go-go-related gene (hERG) potassium channel (human, UniProt Q12809) (assay: primary screen, population patch clamp on CHO cells stably expressing hERG).
Chain of human ether-à-go-go-related gene (hERG) potassium channel (Q12809 whole entry, looked up): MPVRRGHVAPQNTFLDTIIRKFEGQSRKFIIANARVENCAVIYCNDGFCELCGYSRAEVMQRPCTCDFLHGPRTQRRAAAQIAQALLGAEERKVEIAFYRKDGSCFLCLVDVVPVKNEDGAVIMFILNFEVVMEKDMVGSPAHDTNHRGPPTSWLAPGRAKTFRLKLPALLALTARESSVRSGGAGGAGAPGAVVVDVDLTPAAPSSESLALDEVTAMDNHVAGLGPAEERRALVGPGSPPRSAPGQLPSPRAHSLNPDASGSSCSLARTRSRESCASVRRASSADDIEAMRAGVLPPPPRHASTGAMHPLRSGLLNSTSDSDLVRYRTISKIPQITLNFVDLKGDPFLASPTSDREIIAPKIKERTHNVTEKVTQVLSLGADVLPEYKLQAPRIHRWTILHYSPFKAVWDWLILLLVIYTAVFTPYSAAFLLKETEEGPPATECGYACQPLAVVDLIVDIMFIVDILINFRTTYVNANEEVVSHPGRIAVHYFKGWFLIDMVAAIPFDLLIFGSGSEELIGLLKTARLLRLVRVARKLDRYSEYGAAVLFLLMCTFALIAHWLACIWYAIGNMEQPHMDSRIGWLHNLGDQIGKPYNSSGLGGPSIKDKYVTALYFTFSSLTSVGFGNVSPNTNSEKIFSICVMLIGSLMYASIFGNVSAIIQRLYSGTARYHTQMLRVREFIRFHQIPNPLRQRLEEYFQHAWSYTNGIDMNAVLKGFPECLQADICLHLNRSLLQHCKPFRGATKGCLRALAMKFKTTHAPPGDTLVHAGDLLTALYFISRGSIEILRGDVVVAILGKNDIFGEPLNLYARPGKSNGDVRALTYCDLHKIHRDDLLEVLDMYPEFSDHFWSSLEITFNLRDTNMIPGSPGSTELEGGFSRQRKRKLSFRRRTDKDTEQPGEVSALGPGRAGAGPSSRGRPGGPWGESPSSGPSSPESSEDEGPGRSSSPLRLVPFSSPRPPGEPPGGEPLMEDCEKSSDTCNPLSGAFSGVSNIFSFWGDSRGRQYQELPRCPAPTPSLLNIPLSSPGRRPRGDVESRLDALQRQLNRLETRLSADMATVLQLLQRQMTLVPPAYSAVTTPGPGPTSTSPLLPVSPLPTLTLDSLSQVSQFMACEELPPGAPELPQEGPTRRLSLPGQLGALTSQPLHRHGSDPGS

Row | Compound | hERG current change (%, negative = inhibition) at 1uM
1 | Fc1ccc(CNCc2cccc(Br)c2)cc1 | 28%
2 | COc1ccc(-c2nc3n(c(=O)c2C#N)CCS3)c(OC)c1 | 12.2%
3 | COC(=O)CSc1[nH]c(=O)cc(C)c1C#N | 18.6%
4 | O=C(O)CCC(=O)NNC(=O)c1ccc(Br)cc1 | 5.87%
5 | O=C(OCC(=O)N1CCc2ccccc21)c1cncc(Br)c1 | 9.86%
6 | CN(C)c1oc(COc2ccccc2F)nc1C#N | 8.75%
7 | CN(CCO)Cc1csc2ccc(Br)cc12.Cl | 5.84%
8 | c1ccc(-c2ncc3c(ccc4ccccc43)n2)cc1 | 5.48%
9 | O=C(OCc1nnc(-c2ccccc2)o1)c1ccc(S(=O)(=O)NCc2ccco2)cc1 | -1.4%
10 | COc1cccc(NC(=O)Nc2nnc(Cc3ccc(OC)c(OC)c3)s2)c1 | 13.1%
11 | COc1ccc(OC)c(C2C(C(=O)c3ccc(C)o3)=C(O)C(=O)N2CCCN2CCOCC2)c1 (stereo not drawn) | 8.89%
12 | C/C=C(\C)C(=O)O[C@H](c1cc2ccc(=O)oc2cc1OC)[C@@H](O)C(C)(C)O | 10.6%
13 | O=C(Nc1nc2ccccc2[nH]1)NC1CCCCC1 | 9.76%
14 | O=c1cc(-c2cccc(Br)c2)oc2cccc(O)c12 | 15.9%
15 | C#CCOC(=O)C(NC(=O)c1ccccc1)=C1CCCCC1 | -4.89%
16 | O=C(c1cccs1)N1CCN(Cc2ccccc2)CC1 | 8.83%
17 | CCn1c(SCC(=O)N2CCC(C)CC2)nc2c1c(=O)n(C)c(=O)n2C | 8.87%
18 | COC(=O)c1ccc(OC)c(CSc2nnc(COc3ccccc3)o2)c1 | -19%
19 | NNc1ccc(Cl)c(C(=O)O)c1 | 10.6%
20 | Cl.OCCCCNCc1cc(Br)ccc1OCc1ccccc1F | 4.37%

Row | Compound | hERG current change (%, negative = inhibition) at 1uM
21 | Cn1nccc1C(=O)Nc1nnc(C2CC2)s1 | -2.12%
22 | O=C1NC(=O)N(Cc2ccccc2)C(=O)/C1=C/C=C/c1ccco1 | 7.07%
23 | COCc1cc(=O)n2[nH]c(C)c(-c3ccccc3)c2n1 | 13.1%
24 | Cc1ccc(/C=C2\C(=O)NC(=O)N2C)o1 | 4.31%
25 | CCc1ccc(NC(=O)CSc2nc3cc(C(=O)OC)ccc3c(=O)n2Cc2ccco2)cc1 | -0.869%
26 | COc1ccc(-n2ccn3c(CCC(=O)N4CCN(c5cccc(C)c5C)CC4)nnc3c2=O)cc1 | 15.1%
27 | CCN(CC(=O)Nc1c(F)cccc1F)C(=O)c1ccc(Sc2nncn2C)c([N+](=O)[O-])c1 | 12.9%
28 | Cc1cc(C)c2nc(NNC(=O)c3cc(-c4cccs4)nc4ccccc34)sc2c1 | 11.6%
29 | c1ccc(Cc2nnc3n2CCCCC3)cc1 | 12.5%
30 | CC(=O)c1cnc2ncnn2c1C | 7.75%
31 | COc1ccc(OC)c(S(=O)(=O)N2CCN(c3c(C)cccc3C)CC2)c1 | 5.85%
32 | Cc1cc(C)c(OCCCCCNCCO)c(C)c1 | 6.3%
33 | COc1ccc2cc(CN(CC3CCCO3)S(=O)(=O)c3ccccc3Cl)c(=O)[nH]c2c1 (stereo not drawn) | 2.29%
34 | CC(NCC(=O)NCCc1ccc(S(N)(=O)=O)cc1)c1ccc(F)cc1 (stereo not drawn) | 15.1%
35 | COc1ccccc1N1CCN(C(=O)CCC(=O)Nc2nnc(CC(C)C)s2)CC1 | 2.88%
36 | Cn1nc(C(C)(C)C)c(NC(=O)c2cccs2)c1C(C)(C)C | 12.4%
37 | O=C(Nc1ccn(C2CC(OC(=O)c3ccccc3)C(CO)O2)c(=O)n1)c1ccccc1 (stereo not drawn) | 12.5%
38 | CCSc1nsc(NC(=O)Nc2cccc(F)c2)n1 | 12%
39 | COc1ccc(N(CC(=O)NC2CCCC2)C(=O)c2csnn2)cc1 | -9.36%
40 | CS(=O)(=O)c1cnc(-c2ccccc2)nc1Oc1ccc(Cl)cc1 | 11.3%

Row | Compound | hERG current change (%, negative = inhibition) at 1uM
41 | O=C(Nc1cccc(C(F)(F)F)c1)n1cc(-c2ccccn2)c(N2CCOCC2)n1 | 4.16%
42 | CCn1c(CNC(=O)c2ccccc2Br)nnc1SCC(=O)Nc1nncs1 | 7.59%
43 | CCCCNC(=O)COC(=O)c1ccccc1F | 4.01%
44 | Cc1cccc(N/N=C/c2c(O)[nH]c(=S)[nH]c2=O)c1 | 11.6%
45 | Cc1ccccc1C(=O)NC(=S)Nc1ccc(N2CCN(C(=O)c3ccccc3)CC2)cc1 | 7.72%
46 | COc1ccc(CNC(=O)c2c(C)nc3ccccn23)cc1 | -9.68%
47 | O=C(OCC(=O)c1ccccc1Br)c1ccncc1 | 9.42%
48 | COc1cc(C=Nc2cccc(C)c2)c(O)c([N+](=O)[O-])c1 | 12%
49 | CC(=O)c1c(NCc2ccccc2)nc(=O)n(-c2ccccc2)c1C | 4.06%
50 | N#Cc1ccc(OCCN2C(=O)NC3(CCSC3)C2=O)cc1 (stereo not drawn) | -23.3%
51 | CC(C)N1CCN(c2ccc(S(=O)(=O)N3CCOCC3)cn2)CC1 | 12.2%
52 | COc1ccc(-n2c(C)c(C(C)=O)c(C(C)=O)c2C)cc1OC | 9.99%
53 | Cc1ccc(CN(C)C2CCN(C)CC2)cc1 | 7.88%
54 | CNc1ccccc1C(=O)OCC(=O)N1CCN(c2ccc(OC)cc2)CC1 | 13.2%
55 | CC1CCCCC1NC(=O)CCS(=O)(=O)c1ccc2c(c1)NC(=O)CO2 (stereo not drawn) | 15.9%
56 | COc1ccc(OC)c(CN2CCN(C(=O)[C@@H](NC(=O)c3cccc(C)c3)C(C)C)CC2)c1 | 7.46%
57 | CC(C)c1cccc(OCC(=O)Nc2ccc(S(=O)(=O)Nc3ccccn3)cc2)c1 | 24.2%
58 | Cc1nc(CNS(=O)(=O)c2cccs2)cs1 | 14.5%
59 | CC(C)c1nc(CNC(=O)CC2C(=O)NCCN2Cc2ccc(F)cc2Cl)cs1 (stereo not drawn) | 6.26%
60 | COc1ccc(/C=N/NC(=O)c2ccc3nc[nH]c3c2)cc1OC | 16.7%
